Measured values from article PMC12136788.
The list shows a part of the results.

T1: UNK ZnF1-6 (called full-length) (human, UniProt Q9C0B0 30-357)
T1 sequence: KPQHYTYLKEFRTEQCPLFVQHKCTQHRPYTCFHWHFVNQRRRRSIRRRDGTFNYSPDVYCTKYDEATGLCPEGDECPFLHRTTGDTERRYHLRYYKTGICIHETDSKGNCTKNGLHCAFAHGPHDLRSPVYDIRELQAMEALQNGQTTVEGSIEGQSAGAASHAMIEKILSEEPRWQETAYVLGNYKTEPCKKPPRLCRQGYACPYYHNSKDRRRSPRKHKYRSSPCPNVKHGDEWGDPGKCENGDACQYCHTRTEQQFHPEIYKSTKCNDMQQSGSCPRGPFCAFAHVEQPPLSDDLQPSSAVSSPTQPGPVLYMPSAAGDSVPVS

B1: chr12:106067485:106067586:-|CDS|ENSG00000074590|msi1|total|mutant (ssRNA)
RNA: GGGAGUUCUACAGUCCGACGAUCCCUGAAGAAGCGAAGCAACAGCGAGCAUCGCUCUCACAGCACUGGCUUCAUUGAAGGUGCCGUUGGUCCUGCCUUACCCUCUACUUUCAAGAUGGAGCAGGACUUGUGCAGGACUGGCGUCAACAGAGGAUUGAGCAUCA
B2: chr4:1716041:1716142:-|3pUTR|ENSG00000168936|msi1|FALSE|unique (ssRNA)
RNA: GGGAGUUCUACAGUCCGACGAUCAGGCUUCCUAGAGCGCUCAGCAGGUGAAGGCAGCAGGGGCCAUGGCCGGGAGCCAGGCCUAGCUUUGAACUGAGUUUCAAGGGCUGCCAAAGAGGGGCAGUGGGUUGGGGUUGUUUUUACCAACAGAGGAUUGAGCAUCA
B3: chr2:216674409:216674600:-|3pUTR|ENSG00000115461|msi1|FALSE|unique (ssRNA)
RNA: GGGAGUUCUACAGUCCGACGAUCUCAUGGCAUGACACAGCGGAGACCGCCUCCAACAACGAAUUUGGGGCUACGAAGAGGAAUAGCGAAAAAGCAAAUCUGUUUCAACUGAUGGGAACCCUAUAGCUAUAGAACUUGGGGGCUCAACAGAGGAUUGAGCAUCA
B4: chr2:135724104:135724205:+|CDS|ENSG00000048991|msi1|FALSE|unique (ssRNA)
RNA: GGGAGUUCUACAGUCCGACGAUCCAACACUGCCAACCCUGAACGCUCUAAACCCAGUGACUUGGCCUCCACCUACACCGUCUUAGCCACAUUCCCCUCCAUUUCAGCUGCACAGAAUGCACUGAAGAAACAAAUUAACUCAGUCAACAGAGGAUUGAGCAUCA
B5: chr17:63766011:63766126:-|CDS|ENSG00000108588|unk|total|mutant (ssRNA)
RNA: GGGAGUUCUACAGUCCGACGAUCGGUGUUUGGGAGUGUCUCUGAAGCCAAGUUUGAUGAUUUUGAGGAUGAGGAGGACACCGCCGAGUAUGAUGAUAAUGACUUCGCUGAAUUUGAGGAUGUCAUGGAAGACUCUGUUACUGACAACAGAGGAUUGAGCAUCA
B6: chr20:58360308:58360409:+|3pUTR|ENSG00000124209|msi1|total|mutant (ssRNA)
RNA: GGGAGUUCUACAGUCCGACGAUCCAUUGAACAUGUCCGCCCCGGAUACGUACAGUAAAUUAACAAUGACCGCAGCAGAUGCCCCGCUCAUCCUGGGUUUGCUUCUGACCUUGUCAUGUGUGUGCCACCAAACACGUUAUUGGCCAACAGAGGAUUGAGCAUCA
B7: chr12:125025615:125025697:+|3pUTR|ENSG00000184992|msi1_unk|FALSE|overlapping (ssRNA)
RNA: GGGAGUUCUACAGUCCGACGAUCGGACACAUUCCCAGAAGAGCGGAAAGAUCAUUGACGUGGAACUACACACGAAGUGUAAUUAGUGGGGGAAAAAAUAUUUUUUAAACAAAGGAUAUAACCAUAUUUAGUUGUACAGUAAGACAACAGAGGAUUGAGCAUCA
B8: chr2:190659421:190659522:+|CDS|ENSG00000138386|unk|total|mutant (ssRNA)
RNA: GGGAGUUCUACAGUCCGACGAUCAGAGACUGGGUCACAAACCCUGGGCUUUUCAAUCAGCCACUGACUUCCCUUCCUGUCAGCCGCAUACCCAUCUAUAAAUUACCAGAGGGAUCACCAACAUGGCUGGGAAUAUCCUGCAGUCAACAGAGGAUUGAGCAUCA
B9: chr16:50751694:50751795:+|CDS|ENSG00000083799|unk|total|mutant (ssRNA)
RNA: GGGAGUUCUACAGUCCGACGAUCGCUUUUUCAGUGUGAUGAAGAUUGUGGCGUGUUUGUUGCAUUGGACAAGCCCGAACUCACCGAAGAUGAUGACACUGCAUUGGAAAGUGAUUACGCAGGUCCUGGGGACACAAUGCAGGUCAACAGAGGAUUGAGCAUCA
B10: chr6:138432586:138432687:-|CDS|ENSG00000135540|unk|total|mutant (ssRNA)
RNA: GGGAGUUCUACAGUCCGACGAUCGGAGCCCUGGGAAUACAAAUCCUCAGGUAAUGGAAGGGCAUCCCCCCUGAAGCCGCAUUCCGCAACUCCUGGCUAUUCCACUCCCACAAGUAACAUGAGCAGCUGCAGUUUGGACCAAACCAACAGAGGAUUGAGCAUCA
B11: chr10:27170558:27170670:+|CDS|ENSG00000120539|unk|total|mutant (ssRNA)
RNA: GGGAGUUCUACAGUCCGACGAUCCUUAUGUGUGAACUCGAUGAAGACUGUGAAAAGAACCGUAAGAGGGACUACUUAAGUUCCCGUUUUCUAUGUUCUGAUGAUGACCGAGCUUCUAAAAAUAUUUCUAUGAACUCUGAUUCACAACAGAGGAUUGAGCAUCA
B12: chr16:30603633:30603734:-|3pUTR|ENSG00000156853|unk|total|mutant (ssRNA)
RNA: GGGAGUUCUACAGUCCGACGAUCGUUAAGUACCACAUUCUCCUCUAAACCUUGCCUACGACAUGUUUAAUACUUCAUCUACACCGCAGCCCUUCAGAUAAUCACAACCACUUUGCCCCCAAGUUUUCAGGUUAAGCCGCAUGACAACAGAGGAUUGAGCAUCA
B13: chr7:27100353:27100725:-|three_prime_utr|ENSG00000105996|control|control|control (ssRNA)
RNA: GGGAGUUCUACAGUCCGACGAUCUUUUUUAUUUUCUUCUUGACCUACCCCUUCCCUCCUUUAAGUGUUGAGGAUUUUCUGUUUAGUGAUUCCCUGACCCAGUUUCAAACAGAGCCAUCUUUUACAGAUUAUUUUGGAGUUUUACAACAGAGGAUUGAGCAUCA
B14: chr15:40213340:40213445:+|CDS|ENSG00000156970|unk|FALSE|unique (ssRNA)
RNA: GGGAGUUCUACAGUCCGACGAUCACACAGUGAAUAUAUUACCCAUGAAAUAACAGUGUUGAUUAUUUAUAACCUUUUGACAAUAGUGGAGAUGCUACACAAAGCAGAAAUAGUCCAUGGUGACUUGAGUCCAAGGUGUCUGAUCAACAGAGGAUUGAGCAUCA

What follows are binders tested against T1, UNK ZnF1-6 (called full-length) (assay: nsRBNS (natural sequence RNA bind-n-seq); RBNS binding buffer (assumed for nsRBNS): 25 mM Tris pH 7.5, 150 mM KCl, 3 mM MgCl2, 0.01% Triton X-100, 500 ug/ml BSA, 20 U/ml SUPERase-In, 4 C; UNK is unkempt and MSI1 is Musashi-1; names of the RNAs are library labels; protein concentration not given here; high values mean tight binding).
For B1, the binding signal was 0.457 enrichment R. For B2, the binding signal was 1 enrichment R. Work on B3 yielded a binding signal of 1.65 enrichment R. For B4, the binding signal was 0.977 enrichment R. B5 showed a binding signal of 0.558 enrichment R. B6 gave a binding signal of 0.483 enrichment R. With B7 the binding signal was 1.71 enrichment R. With B8 the binding signal was 0.861 enrichment R. B9 gave a binding signal of 0.721 enrichment R. With B10 the binding signal was 0.798 enrichment R. Binder B11 has a binding signal of 0.313 enrichment R. Binder B12 has a binding signal of 0.83 enrichment R. Work on B13 yielded a binding signal of 1.15 enrichment R. In the case of B14, the binding signal is reported as 0.529 enrichment R.
